Test results published in PubChem BioAssay AID652104 (National Center for Advancing Translational Sciences (NCATS), 2013).
Hit rate of the full screen: of about 410,000 compounds, about 7,200 (1.8%) were called active. Inconclusive means that the source gave no clear call. Such entries were picked first, then a sample of the others. The call rests on the fitted dose curve; in most records, active means well fitted activation curve with a large enough effect; inconclusive means small, poorly fitted or top-dose-only effect, or another doubt; inactive means no such curve, though single readings can be large or run the other way. No potency is given beside an inconclusive call; the fits are too rough.

Test: qHTS of TDP-43 Inhibitors; further: nearly all actives have a fitted effect of over 50% in size; on growth rescue (activation): % of control where 0% means no effect
Settings: TDP-43 expressing yeast growth rescue, BacTiter-Glo, 24 h; growth rescue (activation): at 46.1 µM (top of the series) unless noted
Summary of the method: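 Cell-based yeast growth screen: TDP-43 expression induced in galactose, inoculum OD600=0.02 after raffinose pregrowth to mid-log. Read-out BacTiter-Glo luminescence at 24 hr, 30 deg C; inhibition of toxicity seen as signal increase.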
Potency means the concentration at half of the fitted maximal effect; tags describe the fitted curve by direction and shape.

Row | SMILES | Potency | growth rescue (activation)
1 | COc1ccc(-c2ccc(C(=O)NCc3ccco3)c3occc23)c(C)c1 | inconclusive [activator, partial curve] | –
2 | Cc1ccc(C2CC(c3cccs3)=NN2C(=O)CSC2=NCCS2)cc1 (centres undefined) | inconclusive [activator, partial curve] | –
3 | CCCOc1ccc(CNC(=O)c2ccc3c(c2)N(Cc2ccccc2)CCS3)cc1 | – | inactive: -9.27%
4 | Cc1ccc(NC(=O)c2cc(N3C(=O)C=CC3=O)ccc2N2CCOCC2)cc1 | – | inconclusive: -93.2% [activator]
5 | OCCN(C=NC1=NN(c2cccc(C(F)(F)F)c2)CC1)CCO | inconclusive [activator, single point] | –
6 | Cc1ccc(N=Nc2ccc(O)c(/C=N\NC(=O)c3ccc(N)cc3)c2)cc1C | – | inactive: -19%
7 | O=C(COC(=O)c1ccc([N+](=O)[O-])o1)NC1CCCC1 | inconclusive [activator, single point] | –
8 | CCNC(=S)N(CCc1c(C)[nH]c2ccc(Cl)cc12)Cc1ccco1 | inconclusive [activator, single point] | –
9 | CCOC(=O)c1c(C)cccc1OCC(N)=O | – | inactive: 11.9%
10 | CC1=C(c2ccc(C)cc2)[N+](=O)C(C)(C)N1[O-] | – | inactive: -16.7%
11 | c1ccc(-c2csc3ncn4cnnc4c23)cc1 | inconclusive [activator, partial curve] | –
12 | COc1cccc(N2[C@@H](CC(=O)O)c3ccc(/C=C/C(=O)O)cc3S2(=O)=O)c1 | – | inactive: 10.5%
13 | O=C(NNc1nc2cc3c(cc2s1)OCCO3)c1ccc(F)cc1 | active: 10 µM | –
14 | CC(=O)n1nc(-c2cccnc2)nc1NCc1ccc(F)cc1 | inconclusive [activator, partial curve, poor fit] | –
15 | Cc1ccc(S(=O)(=O)NC(=O)C2(C)CCN2C(=O)Cc2ccc(-c3ccccc3)cc2)cc1 (centres undefined) | – | inactive: 30%
16 | O=S(=O)(c1cccc2nsnc12)N1CCN(c2ncccn2)CC1 | inconclusive [activator, partial curve] | –
17 | O=C1C=CC(=O)C(CNc2ccc(C(=O)OCc3ccccc3)cc2)=C1 | inconclusive [activator, single point] | –
18 | Cc1ccccc1-c1cnc(C(O)c2cc(Cl)cc(Cl)c2)[nH]1 (centres undefined) | inconclusive [activator, full curve, poor fit] | –
19 | COc1ccc(NC(=S)N/N=C/c2cccn2Cc2ccccc2F)cc1 | inconclusive [activator, partial curve, poor fit] | –
20 | Cc1cc(C(F)F)n2ncc(C(=O)NCc3ccccc3F)c2n1 | inconclusive [activator, single point] | –
21 | COc1ccc(-c2ccc(C(=O)Nc3cccc(N(C)C)c3)c3occc23)c(C)c1 | inconclusive [activator, partial curve] | –
22 | COc1ccc(NS(=O)(=O)c2cccc(C(=O)NN=Cc3ccc(OC)c(O)c3)c2)cc1 | inconclusive [activator, partial curve] | –
23 | COc1ccc(C(C)=O)cc1CSc1ccccn1 | inconclusive [activator, partial curve] | –

Row | SMILES | Potency | growth rescue (activation)
24 | Clc1ccccc1-c1nc(-c2ccc(Br)o2)no1 | inconclusive [activator, partial curve] | –
25 | CCCNC(=O)COCc1cc(-c2ccc(F)cc2)on1 | inconclusive [activator, partial curve] | –
26 | O=C(CCC1N=C2c3ccccc3N=C(SCc3ccccc3F)N2C1=O)NCc1ccccc1 (centres undefined) | – | inactive: 7.78%
27 | COc1ccc(Cn2cnc3c([N+](=O)[O-])c(C)c(C)cc32)cc1 | inconclusive [activator, single point] | –
28 | COc1ccc(-n2ncc(C(=O)Nc3ccc4c(c3)OCO4)c2C2CCN(C(=O)OC(C)(C)C)CC2)cc1 | – | inactive: -7.48%
29 | CCCCCC/C(C)=C1/SC(=S)NC1=O | inconclusive [activator, single point] | –
30 | COC1OC2COC(c3ccccc3)OC2C2OC(c3ccccc3)OC12 (centres undefined) | inconclusive [activator, partial curve, poor fit] | –
31 | COc1ccc(C)cc1NC(=O)CCNC(=O)Cn1ccc2ccccc2c1=O | inactive | –
32 | CCC(=O)N1CCN(c2ccc(Cl)cc2NC(=O)c2ccc3c(c2)OCCO3)CC1 | active: 25.1 µM | –
33 | CC(=O)Nc1ccc(SC[C@H](Cc2ccccc2)N2CC[C@@H](C)CCC2=O)cc1 | inconclusive [activator, single point] | –
34 | COc1ccc(NC(=O)c2oc3ccccc3c2NC(=O)Cc2coc3cc(C)ccc23)cc1 | – | inactive: 20.3%
35 | COc1ccccc1N1C(=O)c2ccccc2NC1c1cc(OC)c(OC)c(OC)c1 (centres undefined) | – | inactive: 12%
36 | CCOC(=O)c1c(C)[nH]c(C(=O)OCC(=O)Nc2ccc(OC)c(Cl)c2)c1C | inconclusive [activator, partial curve] | –
37 | Cn1c(SCC(=O)N(C2CCCCC2)C2CCCCC2)nnc1-c1cccs1 | inconclusive [activator, single point] | –
38 | N#Cc1c(-c2ccncc2)cc(-c2ccc(F)cc2)nc1N | – | inactive: 6.27%
39 | CC(C)Sc1cc(N2CCCC2)nc(-c2ccccc2Cl)n1 | active: 14.1 µM | –
40 | CCN(CC)C(=O)[C@H]1C[C@H](CC(=O)NCc2cccc(C(F)(F)F)c2)C(=O)N2CCc3c([nH]c4cc(CCC(=O)N(C)C)ccc34)[C@]12C | inconclusive [activator, partial curve] | –
41 | Cc1ccnc(NC(=O)c2ccc([N+](=O)[O-])s2)c1 | active: 8.91 µM | –
42 | CC1=CC(C)(C)NC(=S)N1C(C)c1ccccc1 (centres undefined) | – | inactive: 14.7%
43 | CCc1ccc(OCC(=O)NNC(=O)C2CCN(c3ncnc4sc(C)c(C)c34)CC2)cc1 | inconclusive [activator, partial curve] | –
44 | COc1ccccc1CNC(=O)C1CC(c2cccc([N+](=O)[O-])c2)=NO1 (centres undefined) | inconclusive [activator, single point] | –
45 | Cc1cccc(OCCCC(=O)N2CCCCCC2)c1C | inconclusive [activator, partial curve] | –
46 | Cc1ccc(-c2nc(-c3ccccn3)no2)cc1[N+](=O)[O-] | inconclusive [activator, partial curve] | –

Row | SMILES | Potency | growth rescue (activation)
47 | COc1ccc(-n2cnc3scc(-c4ccccc4)c3c2=O)cc1 | active: 11.2 µM | –
48 | CCOC(=O)c1cc(OC(=O)c2cc(OC)c(OC)c(OC)c2)n(-c2ccccc2)n1 | inconclusive [activator, partial curve] | –
49 | O=C(CCc1ccccc1)NC(=S)Nc1ccccc1Br | inconclusive [activator, partial curve] | –
50 | C=CCC1(CC=C)CC(Cc2cnccn2)N(C(=O)OC(C)(C)C)C1 (centres undefined) | inconclusive [activator, full curve, poor fit] | –
51 | Cc1ccc(N2CCN(S(=O)(=O)N3CCCCC3)CC2)cc1Cl | inconclusive [activator, partial curve, poor fit] | –
52 | CCNc1nc(C)c2cc(Br)c(=O)n(CC)c2n1 | inconclusive [activator, partial curve] | –
53 | N#CC(=C1CCCC1)c1nc(-c2ccc(Cl)cc2)cs1 | inconclusive [activator, partial curve, poor fit] | –
54 | CCOc1ccc(C(=O)Nc2ccc(CN3CCOCC3)cc2)cc1Br | inconclusive [activator, single point] | –
55 | NC(=O)c1cc(Cl)ccc1OCC(=O)Nc1ccc2c(c1)OCO2 | – | inactive: 12.1%
56 | COc1ccc(OC)c(NC(=O)Cn2c(=O)n(-c3cccc(C)c3)c(=O)c3c2c2cc(C)ccc2n3C)c1 | – | inactive: 5.76%
57 | COc1ccc(N(CC(=O)N2CCN(c3ccccc3)CC2)S(=O)(=O)c2c(C)nn(C)c2C)cc1 | inconclusive [activator, partial curve] | –
58 | COc1ccc(-c2cc3nc(C)c(CCC(=O)NCc4ccccc4Cl)c(C)n3n2)c(OC)c1 | inconclusive [activator, single point] | –
59 | Cc1ccc(Sc2cnn(-c3ccccc3)c(=O)c2Cl)cc1 | inconclusive [activator, single point] | –
60 | O=S(=O)(Nc1nc2ccccc2nc1Cl)c1ccc(Cl)cc1 | inconclusive [activator, partial curve] | –
61 | Cc1ccccc1NC(=O)c1cnn(-c2ccccc2)c1C | active: 12.6 µM | –
62 | CC(C)(C)C(=O)NNC(=O)COc1ccc2ccccc2c1Br | inconclusive [activator, partial curve] | –
63 | CCOc1ccc(C2CC(=O)NC(NC(=O)c3cccc(Cl)c3)=N2)cc1 (centres undefined) | – | inactive: 0.588%
64 | O=C(Nc1cccc(-c2nc3cccnc3s2)c1)c1ccco1 | active: 10 µM | –
65 | NC(=O)c1cc([N+](=O)[O-])ccc1Nc1ccccc1 | inconclusive [activator, partial curve, poor fit] | –
66 | COc1ccc(CC(=O)N(c2ccccc2)c2nc(C)cs2)cc1 | inconclusive [activator, partial curve] | –
67 | COc1ccccc1NC(=O)c1c(C)cc(C)nc1SCC(=O)Nc1ccc(C)c(C)c1 | inconclusive [activator, partial curve] | –
68 | Nc1n[nH]c(C2CC2)c1N=Nc1ccc(Cl)cc1 | inconclusive [activator, partial curve] | –
69 | CCOc1ccc(C(=O)Cc2ccccc2)cc1 | inconclusive [activator, partial curve] | –
